Laboratory results published in the supplement of paper PMC11417369.
Some of the results follow.

Tested on: PfAP2-HC AP2 domain (GST-tagged)
Assay: gcPBM binding intensity (ln(normalized median fluorescence intensity)); higher = stronger DNA binding
Procedure, shortened: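 Binding of GST-tagged P. falciparum DNA-binding domains, expressed in E. coli and used at about 25 μg on average, was carried out for 1 h in 1× PBS containing 1% milk, 0.2 mg/ml BSA, 0.5% salmon testes DNA and 0.03% Triton X-100. The target was an Agilent 4 × 180k array of primer-extended double-stranded 36-bp intergenic genomic probes plus negative controls, read with Alexa488 anti-GST antibody at 488 nm. Binding intensity is the highest Masliner-normalised natural-log median intensity across replicate spots of either probe orientation.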

| Sequence | gcPBM binding intensity (ln) |
| --- | --- |
| AAAAATTCCAGACACACACACACATATAAATAAATA [CACACA_site1232] | 11.1 |
| AGAACCATATATAAATGTACATGTTAATATGAATAA [XGTACX_site130] | 9.74 |
| GGACAAAAAAAAAAAATAAAATAAAAATAAATAAAT [XGTACX_negctrl_site106] | 9.36 |
| ATTTATTAAATAAAAAGTACAAAATAAGAAAGAAGA [XGTACX_site6935] | 9.78 |
| TTATATATATCTAATTGTACAATATTATGTTCATTA [XGTACX_site7479] | 9.66 |
| ATATATAATATAATATGTACATAAAATTTTAACATT [XGTACX_site5773] | 9.93 |
| AAAAAAACAGTGAATGCACACATTTAAGATCCATAT [CACACA_site3148] | 9.84 |
| TATATTCCCTTAATCACACATAAATAAAAAAAAATA [CACACA_site6094] | 9.44 |
| AAAAAAAAAAAAACTACACACATACAAATATTTATA [CACACA_site5430] | 9.94 |
| AGTATACTCGGACACACACACACATATATATATATA [CACACA_site5031] | 11.7 |
| TACATACATACAGGAGTGCATATATCACAATTATTA | 9.65 |
| TATTTCCTTTTTCTTGTTATTCATGAGAAAAAATGA [CACACA_negctrl_site482] | 9.26 |
| GAAATTTTTAATGTGGTGCACAGGAAATTTTTTCTT | 9.61 |
| AAAATAATAATAGGCACACATATATATATATATATA [CACACA_site2058] | 9.78 |
| ACGACTAAATATATGAGTACATATATATATAAATAT [XGTACX_site7522] | 9.71 |
| AAGAATCATATTTAAACACACATACAGATATATATA [CACACA_site5787] | 9.79 |
| TGCAAAAAATTCCACACACACACACCCATATAAATA [CACACA_site1230] | 10.5 |
| TCTAAAATAAATAATGCATGTTAAAAAAAAATATAT [TGCATGCA_site562] | 9.6 |
| AGTTATATGATTAATACACACAACAAATGTTTCTTC [CACACA_site1092] | 9.76 |

| Sequence | gcPBM binding intensity (ln) |
| --- | --- |
| AATTTGGTGTGTGTAAAAGTATGTGTCTATATTTAT [GTGCAC_negctrl_site166] | 10.3 |
| ATGTATGTTTATTACTATTTTGAGAATAGACTATAA [CACACA_negctrl_site1366] | 9.52 |
| TTTCTTTATAAATTAATATTCACAACACAAAATATA [CACACA_negctrl_site450] | 9.39 |
| AAGAAAATAAAAAATAAGCATAATATGATATGATAT [TGCATGCA_negctrl_site196] | 10.1 |
| AAAAATTTGGCATACACACACACACCGACACAGACA [CACACA_site4489] | 10.5 |
| GTGCATATAAGGAAGTGTACGAAAAAAAATATTCCA [XGTACX_site8490] | 9.58 |
| CAAATATGTCTTATTCGTACACATATATATATATAT [XGTACX_site8817] | 9.79 |
| AAAAAATACTTATAAAGTACTAATATATATAAGCAG [XGTACX_site743] | 9.74 |
| TAATTAAAATTAAGAAGTACATTTTACTTTTAATGC [XGTACX_site5120] | 9.29 |
| TATCATGTTTTTATGGTGCATGAAATCACACATTGA | 9.49 |
| GAGAAATTTATACATACACACATATATATATTATAT [CACACA_site4038] | 9.88 |
| AATACAAACCAAAAAGTAAATACATCAACATGATCA [CACACA_negctrl_site140] | 9.74 |
| TTTATTAATAAGAAATGTACACAAAATTATTTCCAA [XGTACX_site5970] | 9.49 |
| ATAGAGTCATTCCTCACACACACGCTATATGAATAG [CACACA_site2047] | 10.5 |
| CCTGAAATTTTATTATGTACATATTATAAAATGATT [XGTACX_site1434] | 9.47 |
| TGGCACTAAAAAAATAAACACACAGATTTATATAAT [CACACA_site8386] | 9.74 |
| ATAACCACATAAAATATAATTATATATATATATATA [CACACA_negctrl_site603] | 9.97 |
| ATTCCTCCCATGGAATGTACTCATCAAATAAATAAA [XGTACX_site6543] | 9.31 |
| TACACCATGATACATACACACAGACATATACTCATT [CACACA_site4708] | 9.96 |

| Sequence | gcPBM binding intensity (ln) |
| --- | --- |
| TCCAAATGTTTGCGTTGTACTCTTTTTTTAAAACTA [XGTACX_site5148] | 9.73 |
| AAATTTTCATGTGTTGCATGCTGAACTATTTTATCA [TGCATGCA_site856] | 9.76 |
| AATAAAAAGGAAAGGTATATGTGTGCCCTTGTGTTA [TGCATGCA_negctrl_site83] | 9.91 |
| AGTGGATGAGGACATACACACACACCGAAGTTGATA [CACACA_site9132] | 10.3 |
| AAGGAATATATATACATACACACATATATATATATA [CACACA_site1665] | 9.89 |
| AAAAAAAAAAAAAAAAAAAAAAATATATATATATAT [XGTACX_negctrl_site33] | 9.56 |
| ATATAATAAATATATTGTACATATGAATCTACTAAA [XGTACX_site7610] | 9.57 |
| TAAAAAATGATAGAAGTGCATAAAATAATATATATA [GTGCAC_site9904] | 9.82 |
| TTTCTATTTCCTTCACATCTTTTCATCTTTTTTTTT [CACACA_negctrl_site1110] | 9.84 |
| GACTTGAAGAAATAAGTGCAGAGTTTTATTTTAATT [GTGCAC_site9912] | 9.49 |
| AAAAAATTCCTATATACACACACGCACATATTTATA [CACACA_site6192] | 10.2 |
| TATTTTTTCCTTTGTTTTTTAAACTATCTTAACTAA [XGTACX_negctrl_site519] | 9.53 |
| AAATAAATAAAAAACACACACAAATAAATAAATATA [CACACA_site2249] | 10.7 |
| TTAAAATAAAGAGCAGTGCGCATATTTTGTTATTAT [GTGCAC_site9753] | 9.73 |
| ATAAAAAAATATGTAAACATATATATGTATTTATGT [CACACA_negctrl_site1517] | 9.87 |
| AAACAATTTTTATTTTGTACATAACAATATATTTAT [XGTACX_site1375] | 9.74 |
| TTTTTATATTTTATTAGTACTTATTATATATATAAT [XGTACX_site4900] | 9.7 |
| CATAAAAATGTATCAAGTACACATTTATTTATCCAT [XGTACX_site152] | 9.67 |
